In the supplement of paper PMC3334620:
In all, about 33,000 sequences were measured (“E-score (-0.5 to 0.5)”: median about -0.016, highest 2% from about 0.31 on). The list shows a part of the results.

target: Cst6 (UniProt P40535); experiment: PBM E-score (8-mer binding enrichment) (E-score (-0.5 to 0.5)); higher = stronger / more preferred TF binding; most listed sequences are background and not binding sites; settings: protein concentration: 200 nM; construct: GST-DNA-binding domain
Method in brief: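 For each ungapped eight-base word taken together with its reverse complement, the Universal PBM Analysis Suite assigned an E-score. Binding data came from GST-tagged yeast transcription factors, applied at about 100-200 nM, on universal all-10-mer Agilent arrays made double-stranded by primer extension. Fluorescent anti-GST marked bound protein, and scans were normalised with masliner.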

Sequence	PBM E-score
CCGATTAC	-0.0622
GAGGCCAA	-0.158
GATGGCGA	0.00313
AGAATACA	0.142
AGGGCAGG	-0.288
CGGGAGGA	-0.212
ACCTGGCA	-0.218
ATCTTATG	0.112
ACTGGGTA	-0.0366
AAATTTCA	-0.0471
GTAGACCA	-0.102
AATATCGT	0.256
TGCTAACA	0.0134
CGTTTCAA	0.066
ATTGGATA	0.129
AAAGCAAC	0.001
AACAGTCG	0.0287
GGGGATAA	-0.0964
CCCTTCGC	-0.231
ACTCCGGG	-0.111
TCTAGCCA	-0.0556
AAATGTAT	0.218
GGTCTTCA	-0.247
CAAGCCGA	0.0563
AACATTAT	0.229

Sequence	PBM E-score
CAGATGTA	-0.105
AAGCACAG	0.104
CGGGTTCA	-0.134
CATATAAC	0.151
ACCCCACT	-0.194
ACAGTATG	-0.048
AGTCCACA	-0.0918
CACTTCCA	0.116
AGCGCCTC	0.0152
TGCTGACA	0.0293
CGCAAAAA	0.136
CAAGAATC	0.0835
ATCAACGA	0.0315
CAGGACAC	-0.116
TATAATCA	0.308
AACAACCG	0.0738
AAATATAT	0.27
ACATTGCG	0.0641
AACACCCA	-0.246
GCGCTGTA	-0.0219
GCACGAAA	0.185
ATTCGTGA	0.2
GAGTGCCA	-0.349
ATAGAGAT	0.123
GCAGCCGA	-0.053

Sequence	PBM E-score
ATCATATC	0.291
GACAATGA	-0.0231
GCCAAGTA	-0.208
CGCTACTA	0.0388
CTTGACTC	-0.223
GCTGTGGA	-0.178
ACAGACGG	-0.0429
AAATGGCC	-0.0934
ACTTACGG	0.147
ATGAGGCC	-0.179
AGCCGATA	-0.0664
GGTCTGAA	0.0147
GTAGAAAA	0.176
TGATCTAA	0.247
AGGCTTCC	-0.0849
CCCGTGAA	-0.158
TTGGTAAA	0.174
GAATCGCC	-0.0915
CGGATGTA	-0.0158
AGGAGGCA	-0.178
ATACACAC	0.00224
AGTCGTGG	-0.165
GAACAAAC	0.239
AACATCAC	0.295
GGAATCGA	-0.114

Sequence	PBM E-score
GTATCACA	0.245
TTACAGAA	0.0112
CACGGTTA	0.153
CCATAGAA	-0.085
CAAATTCC	0.0681
CAAAGGGA	-0.0363
TGCGTTAA	0.0114
ACGGCGGA	0.0799
AGTACCAA	0.157
CCGGGCCC	-0.179
AGCACGTC	0.0785
CCCTACTC	0.0563
AATCTACA	0.186
AGTGACAC	0.274
CCCCCTTA	-0.368
AGCTTGAC	-0.144
GAATCACA	0.0993
AACCTATC	-0.142
AAAGCTCT	-0.384
CTTGGCTC	-0.106
AGCGGAGG	-0.226
GGCGTTAC	0.0786
ACCTTAGG	-0.178
ACGTAGGC	0.0825
AGATACCG	0.143

Sequence	PBM E-score
CTTACATA	0.25
CAATCGTC	0.19
ACGAAGGG	-0.0683
CCGTCACA	0.139
TACTTTCA	0.0423
AGAAGCCC	-0.197
CATAGGTC	-0.0833
GGGCCCCA	-0.256
CAAGTACG	-0.114
AGTCCTCA	-0.103
ATCCTGCA	0.171
CGCAGACG	0.00129
GACCGATC	-0.236
ATTGAATG	0.0816
AAGGTCCA	-0.287
GTGTTGAA	0.0169
CCGTATCG	-0.175
CCGCGCAG	0.0336
GGGCCACA	-0.162
CCGTCGTC	-0.0979
ATTCGCGC	0.119
CAGACGAG	-0.16
CGCTTAAC	0.00861
ATCCGCCG	0.188
AGTTGTTA	0.116

Sequence	PBM E-score
AAGCGTGT	-0.0703
AGCCAGTG	-0.171
TCGGGTCA	-0.143
CGCTATAA	0.0251
CCAAATGC	-0.102
AGTACTAT	-0.061
ATTACTCA	0.133
ACTATGCC	0.0934
CCCTGCGG	-0.252
AACACTCT	0.085
ACAATGTC	0.0515
AAAAGTGG	0.112
CGTGACTA	0.11
CTAATCGA	0.0311
AATACCGA	-0.121
ACTCTGAA	0.091
AGATAAGA	0.263
CTTACAGA	0.00756
AGCGCAGC	-0.302
CAATGCAG	0.0246
CCCGATGA	0.0933
TATGGCGA	0.0467
ATAGAGAA	0.127
CAGTCAAA	-0.00144
ACAGGCAC	-0.145

Sequence	PBM E-score
CGCATAGA	-0.0213
AAACGCTT	0.0101
TCTTAACA	0.15
CACTTGAA	0.0854
AGGAGCAT	-0.0197
AGTTAACC	-0.11
CGAGACGC	-0.142
AATACATT	0.153
TAAAGTGA	0.201
ACGGTAAA	0.129
ACTCCAAG	0.0619
TCACGTCA	0.49
TTTGCAAA	0.0781
GTCTAGCA	-0.205
AGTGGGGC	-0.229
GAAGTGCA	0.125
AAGATAAT	0.151
GCGGTCAA	-0.0742
CCGCGGTC	-0.185
GCCCTAGC	-0.148
CATATTTA	0.192
CCTATGAG	-0.0002
